Measured values from ChEMBL document CHEMBL4888484, “Replenishing the malaria drug discovery pipeline: Screening and hit evaluation of the MMV Hit Generation Library 1 (HGL1) against asexual blood stage Plasmodium falciparum ,using a nano luciferase reporter read-out” (2022).
Among all 150,000 compounds or so, about 540 (0.36%) showed an effect of 50% or more. The list shows a part of the results.

What follows are compounds tested on Plasmodium falciparum (assay: Primary screen in NF54 nanoGlo assay, in single point, at 2uM, 72h; a lower Z score goes with more inhibition). Settings: timepoint 72 hour.
Assay type: functional, Erythrocyte
For CCOc1ccccc1CNC(=O)[C@@H]1CCCCCN1C, the “% Inhibition” value was -12% and the Z score was 2.08. With CNC(=O)C1CCN(CC(=O)N(Cc2ccccc2)c2nc3c(C)c(C)ccc3s2)CC1 the “% Inhibition” value was 6% and the Z score was -0.82. With Cc1cccc(N2CCN3C(=O)NC[C@H]3C2)n1 the “% Inhibition” value was 14% and the Z score was -1.63. In the case of CC(C)c1cncnc1N1CC[C@H]2[C@H](CCC(=O)N2CCc2cccs2)C1, the “% Inhibition” value is reported as -6% and the Z score is reported as 0.97. In the case of O=C(c1ccc2[nH]cnc2c1)N1CC(c2nc(-c3cccs3)no2)C1, the “% Inhibition” value is reported as -7% and the Z score is reported as 1.33. With CCC(=O)N(C)C1CCC(NC(=O)OC(C)(C)C)CC1 (centres undefined) the “% Inhibition” value was -6% and the Z score was 0.52. With CCn1cc(CN2C[C@@H]3CC[C@H]2CN(C2Cc4ccccc4C2)C3)cn1 the “% Inhibition” value was 2% and the Z score was -0.33. In the case of Cc1nnc(CN(CC(=O)NC[C@H]2CCCO2)C(C)(C)C)o1, the “% Inhibition” value is reported as 28% and the Z score is reported as -3.71. For CCn1c(-c2cccc(OC)c2)nc2cc(NC(C)=O)cc(C(=O)N3CC4CCCC3C4)c21 (centres undefined), the “% Inhibition” value was -5% and the Z score was 0.85. For COC(=O)CCn1cc(CN[C@H]2CC(=O)N(c3ccccc3)C2)cn1, the “% Inhibition” value was -6% and the Z score was 0.9. For C[C@]1(NCc2cc3cc(Cl)cnc3o2)CCCOC1, the “% Inhibition” value was -3% and the Z score was 0.49. In the case of COc1cc(/N=C(\NC[C@H]2CCCO2)NC(=O)c2cccc(OC)c2)cc(OC)c1, the “% Inhibition” value is reported as -24% and the Z score is reported as 2.24. In the case of CCN(C(=O)C1CC2C=CC1C2)C1CC(=O)NC1=O (centres undefined), the “% Inhibition” value is reported as -8% and the Z score is reported as 1.34. With O=C(NCc1ccc(F)cc1)c1coc(CN(Cc2ccc(C(F)(F)F)cc2)Cc2ccc3c(c2)OCO3)n1 the “% Inhibition” value was -6% and the Z score was 0.84. With COc1ccc(C2CN(Cc3ccc(C(F)(F)F)cc3)CC2CN(Cc2ccc(F)cc2)C(C)=O)cc1 (centres undefined) the “% Inhibition” value was -14% and the Z score was 1.75. In the case of O=C(NCCc1ccc(Cl)s1)NC[C@H]1CCOC1, the “% Inhibition” value is reported as 0% and the Z score is reported as 0.01. O=C(CN1CCOCC1)N1CCc2nocc2C1 was tested, and the “% Inhibition” value was 3% and the Z score was -0.44. In the case of CC(C(=O)NCC1(C)CCC(=O)N1)C1CCC1 (centres undefined), the “% Inhibition” value is reported as 0% and the Z score is reported as -0.01. c1cn(-c2ccc(OC34CCCN(CC3)C4)cc2)cn1 (centres undefined) was tested, and the “% Inhibition” value was 1% and the Z score was -0.26. CN(C)c1ccc(-n2ccnc2-c2cn(C3CCNCC3)nn2)cc1 was tested, and the “% Inhibition” value was -1% and the Z score was 0.26. Cn1cc(S(=O)(=O)N2CCCN(C(=O)Cc3ccsc3)CC2)cn1 was tested, and the “% Inhibition” value was -11% and the Z score was 1.75. With CC(C)N(C)Cc1ccccc1CNC(=O)c1cn(C(C)(C)C)nn1 the “% Inhibition” value was 5% and the Z score was -0.62. With CC(C)(CN(C(=O)C1CCCOC1)C1CC1)NC(=O)C1CCCOC1 (centres undefined) the “% Inhibition” value was -2% and the Z score was 0.19. In the case of Cc1nc2ccc(-n3c(C)ccc3C)cc2s1, the “% Inhibition” value is reported as -14% and the Z score is reported as 2.42. With CCc1ccc(NC(=O)[C@H]2C[C@H]3CCCN3[C@@]23C(=O)N(C)c2ccccc23)cc1 the “% Inhibition” value was -18% and the Z score was 1.78. With CCCS(=O)(=O)Nc1ccc(S(=O)(=O)N(C)C(C)(C)C#N)cc1F the “% Inhibition” value was -12% and the Z score was 1.9. CC(C)(C)CN1CCC[C@@]2(CCN(Cc3ccc4c(c3)OCCO4)C2)C1 was tested, and the “% Inhibition” value was -11% and the Z score was 1.66. COC1CC(OC(=O)c2csc(NC(C)=O)n2)C1 (centres undefined) was tested, and the “% Inhibition” value was -5% and the Z score was 0.95. CCn1nnc(C)c1CN[C@@H](C)COc1cccc(C)c1 was tested, and the “% Inhibition” value was -6% and the Z score was 0.75. CC(=O)Nc1ccnn1C[C@H]1CCOC1 was tested, and the “% Inhibition” value was -4% and the Z score was 0.55. With CC(C)Oc1ccc(S(=O)(=O)Nc2nnc(C(F)F)[nH]2)cc1 the “% Inhibition” value was -1% and the Z score was 0.24. For Cc1n[nH]c2nc3c(c(O)c12)c(=O)n(C)c(=O)n3C, the “% Inhibition” value was -39% and the Z score was 4.56. With NC(=O)c1ccc(CNC(=O)[C@@H]2CCCc3ccccc32)cn1 the “% Inhibition” value was 2% and the Z score was -0.28. For Cc1cn(-c2c(F)cccc2F)nc1C(=O)NCC1CCN(C)CC1, the “% Inhibition” value was 6% and the Z score was -0.71. CC(C)n1[nH]c(=O)c2c(-c3ccccc3)c3c(nc21)[nH]c(=O)n3C was tested, and the “% Inhibition” value was -29% and the Z score was 3.44. With CC(C)(C)C(=O)N1CCC(O)(CS(=O)(=O)Cc2ccc(Cl)cc2)CC1 the “% Inhibition” value was 36% and the Z score was -4.63. In the case of CC(C(=O)NC1CCOc2ccccc21)N1CCC(CO)C(O)C1 (centres undefined), the “% Inhibition” value is reported as -10% and the Z score is reported as 1.06. In the case of O=C(O)C(CNC(=O)[C@H]1C[C@H]2C=C[C@@H]1CC2)CC1CC1 (some centres undefined), the “% Inhibition” value is reported as -12% and the Z score is reported as 1.2. For CCCS(=O)(=O)N[C@@H](C)c1cnc(N2CCCCCCC2)nc1C, the “% Inhibition” value was -17% and the Z score was 1.51. For CN(C)CCN(Cc1ccccc1F)S(=O)(=O)N(C)C, the “% Inhibition” value was -9% and the Z score was 1.55. For COc1cc(F)c(-c2nccn2C2CCN(Cc3cccnc3)CC2)c(F)c1, the “% Inhibition” value was -11% and the Z score was 1.7. In the case of O=C(Nc1nccs1)[C@H](Oc1ccccc1Br)c1ccccc1, the “% Inhibition” value is reported as -18% and the Z score is reported as 1.99. For O=C(Cc1ccsc1)NC1CCN(c2nnc3ccc(Cl)cn23)CC1, the “% Inhibition” value was 30% and the Z score was -3.42. With O=C(Nc1nnc(-c2ccoc2)[nH]1)c1ccc(Cl)cc1Cl the “% Inhibition” value was -3% and the Z score was 0.4. With CC(C)Cc1ncc(CNC(=O)N2CCC[C@H]2C(C)(C)O)s1 the “% Inhibition” value was -1% and the Z score was 0.1. In the case of CN(C)C(=O)[C@H](CCC(N)=O)NC(=O)OCc1ccccc1, the “% Inhibition” value is reported as -13% and the Z score is reported as 1.76. With COc1ccc(N2CCOCC2)cc1NC(=O)c1ccc(Cl)cc1 the “% Inhibition” value was -8% and the Z score was 1.07. For Cn1ncc2c(N(Cc3cccc(F)c3)C3CC3)ncnc21, the “% Inhibition” value was 5% and the Z score was -0.74. With CCCNC(=O)NC(=O)COc1ccc(C#N)c(F)c1 the “% Inhibition” value was -10% and the Z score was 1.49. In the case of CC(NC(=O)C1CC1c1ccccc1Br)c1nncn1C (centres undefined), the “% Inhibition” value is reported as -11% and the Z score is reported as 2.14. With Cc1cc(F)ccc1CNC[C@H]1CN(C2CC2)CCO1 the “% Inhibition” value was -4% and the Z score was 0.46. In the case of CC(C)N(CC(=O)N1CCNCC1)C(=O)c1cccc(F)c1, the “% Inhibition” value is reported as 0% and the Z score is reported as -0.03. CC(C)c1nccn1CC(=O)NC[C@H]1CCCO1 was tested, and the “% Inhibition” value was 4% and the Z score was -0.73. In the case of O=C(NC[C@@H]1COc2ccccc2C1)NC1CCCC1, the “% Inhibition” value is reported as -12% and the Z score is reported as 1.63. With Cc1n[nH]c(C)c1[C@H](C)NC(=O)CCn1nnnc1C the “% Inhibition” value was -4% and the Z score was 0.68. With O=c1n(Cc2ccc3c(c2)OCO3)nc2ccc(-c3ccccc3)nn12 the “% Inhibition” value was -4% and the Z score was 0.5. For COC(=O)NCC(=O)Nc1cc(Cl)c(C)cc1Br, the “% Inhibition” value was -5% and the Z score was 0.99. With CC[C@H](c1ccccc1)c1nc(-c2ccc3nnn(C)c3c2)no1 the “% Inhibition” value was -7% and the Z score was 0.74. For O=S(=O)(Cc1ccccc1)NCC1(CCO)CCCCC1, the “% Inhibition” value was -13% and the Z score was 1.44. In the case of O=C(Nc1ccccc1C(=O)NC1CC1)c1ccc2ccccc2n1, the “% Inhibition” value is reported as -8% and the Z score is reported as 0.68. With CS(=O)(=O)NCCCc1ccc(Cl)cc1 the “% Inhibition” value was 9% and the Z score was -1.07. For O=C(NC1CCOCC1)c1ccc(Oc2ccc(C(F)(F)F)cn2)cc1, the “% Inhibition” value was 0% and the Z score was -0.03. With CCN(C(=O)CNC(=O)c1cccc(F)c1)c1ccc2[nH]ccc2c1 the “% Inhibition” value was 1% and the Z score was -0.1. In the case of COCCn1cnnc1[C@H](C)Nc1nc(C(C)C)nc2c1cnn2C, the “% Inhibition” value is reported as -6% and the Z score is reported as 0.54. Cc1ccccc1C(=O)NC1CCC(Oc2ncccc2C#N)CC1 (centres undefined) was tested, and the “% Inhibition” value was 3% and the Z score was -0.59. CCc1ccnc(-c2noc(C3(OC)CCCCC3)n2)c1 was tested, and the “% Inhibition” value was -2% and the Z score was 0.28. In the case of Cc1cc(-c2nc([C@H]3CCO[C@@H]3C(C)(C)C)no2)ns1, the “% Inhibition” value is reported as 19% and the Z score is reported as -2.35. In the case of Cn1cc(NC(=O)NCC2CC2c2ccccc2)cn1 (centres undefined), the “% Inhibition” value is reported as -3% and the Z score is reported as 0.46. With Cc1cccnc1CN(C)Cc1ccc(-c2ncc[nH]2)s1 the “% Inhibition” value was -9% and the Z score was 1.71. In the case of CN(C(=O)CC1CC2CCC1C2)C1(CO)CCOC1 (centres undefined), the “% Inhibition” value is reported as -12% and the Z score is reported as 2.44. With O=C(NCc1nnc2n1CCC2)c1coc(CN2CCc3ccccc3C2)n1 the “% Inhibition” value was -9% and the Z score was 1.17. O=C1COc2ccc(Cl)cc2N1Cc1nc(-c2ccc(-c3csc(C4CC4)n3)cc2)no1 was tested, and the “% Inhibition” value was -3% and the Z score was 0.26. For CC(C)(C)c1cc(C[C@H]2CNCC[C@H]2CC(=O)N2CCC(Cc3ccccc3)CC2)no1, the “% Inhibition” value was 39% and the Z score was -4.43. For Cc1cc(S(=O)(=O)[C@H]2CS(=O)(=O)C[C@@H]2NCC2CCCO2)ccc1F (some centres undefined), the “% Inhibition” value was -17% and the Z score was 2.22. With CC(C)[C@H]1CN(C(CO)CO)C[C@@H]1NC(=O)Cc1ccccc1 the “% Inhibition” value was 3% and the Z score was -0.56. For Cc1ncsc1C(=O)NCc1ccnc(-n2ccnc2C)c1, the “% Inhibition” value was -11% and the Z score was 1.07. O=C(Cc1noc2ccccc12)Nc1nnc(-c2ccsc2)o1 was tested, and the “% Inhibition” value was -12% and the Z score was 1.79. With Cc1ccc(N2CCC[C@@]3(CCC(=O)N(Cc4cccnc4)C3)C2)nc1 the “% Inhibition” value was -22% and the Z score was 2.04. With c1cc(-c2noc(C3CCC(N4CCOCC4)CC3)n2)ccn1 (centres undefined) the “% Inhibition” value was 7% and the Z score was -0.89. With CCn1nccc1[C@@H]1CCCN1C(=O)Nc1ccc(C)c(Cl)c1 the “% Inhibition” value was 2% and the Z score was -0.4. With O[C@H]1CCN(c2cc(-c3ccccc3)nc3ncnn23)C1 the “% Inhibition” value was -10% and the Z score was 1.69. With O=C(C1CCOCC1)N1CC(N2CCCC2)C1 the “% Inhibition” value was -9% and the Z score was 1.18. For N#Cc1cccnc1NC1CC(Cl)(Cl)C1, the “% Inhibition” value was -1% and the Z score was 0.14. With CC(C)S(=O)(=O)NC(=O)c1cn(C)nc1C1CC1 the “% Inhibition” value was 0% and the Z score was 0.05. Cc1noc(C)c1CN1CCC[C@H](N(CCN2CCCC2)C(=O)C2CCC2)C1 was tested, and the “% Inhibition” value was 5% and the Z score was -0.67. With CC(C)n1cc(Br)cc1C(=O)N1CCc2[nH]ncc2C1 the “% Inhibition” value was -15% and the Z score was 1.49. In the case of CN(C)c1ccc(C(=O)N[C@H]2CCCN(CCCc3ccccc3)C2)cc1, the “% Inhibition” value is reported as -11% and the Z score is reported as 1.64.
